# Laboratory results as given in the supplement of paper PMC8728848.
# This is one part of the list.
# B1: AT5G01260(PC)(40) (Arabidopsis thaliana), Q9LFB0 (protein)
# chain: MIGIGRTLTSSSPSKIILEDLPPGIYRYGTEIFTSVPRKTFHHIKFLRLDSAQSSRILKPVPLRSSSIKDSQVNVEDEEIEASNKTVRVRFQLRKECVFGEHFFIVGDDPVFGGLWDPETALPLNWSDGNVWTVDLDLPVGRLVEFKLLLKAQTGEILWQPGPNRALETWETNKTIRICEDWDNADLQMMIEEDFVPYTNISSIGSEDEDEVLGSVQQNSSVVAVENAGYVSDESAQNSSFSIQSEKTMEPSNGALTAREVIKEAMFTEEESPVLVPGLIPLSDLDNEQVEVINEGKAETFPEVDKKQEPKAERNKKAKVKAISLFEKSEQEAVKSVEQRQYNAVEEEQQRLETEPLGTPDVLFENDIQWGRRTLYKLLSNFRLF
# Columns and labels:
# Assay in all cases: glycan array binding signal (z-score within array); higher = stronger binding
# Details in all cases: glycan notation: IUPAC condensed, linker removed
# [1] = target: Glc(b1-4)Glc
# Outline: (§1)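 Glycan array data came from 3228 arrays in the Consortium for Functional Glycomics database, and only arrays with an available protein sequence were kept. Glycan names were put into IUPAC-condensed notation, and columns mapping to the same glycan were averaged. The binding signal is a within-array Z-score, averaged across arrays of one protein sequence run at different concentrations or buffers and across linkers. A negative Z-score can be read as non-binding.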
# [2] = target: Glc(b1-6)Glc
# Outline: as §1
# [3] = target: GlcA(b1-3)Gal
# Outline: as §1
# [4] = target: GlcA(b1-3)GlcNAc
# Outline: as §1
# [5] = target: GlcA(b1-6)Gal
# Outline: as §1
# [6] = target: GlcA3S(b1-3)Gal(b1-4)GlcNAc(b1-2)Man
# Outline: as §1
# [7] = target: GlcA3S(b1-3)Gal(b1-4)GlcNAc(b1-3)Gal(b1-4)Glc
# Outline: as §1
# [8] = target: GlcNAc(a1-3)Gal(b1-4)GlcNAc
# Outline: as §1
# [9] = target: GlcNAc(a1-4)Gal(b1-3)GlcNAc
# Outline: as §1
# [10] = target: GlcNAc(a1-4)Gal(b1-4)GalNAc
# Outline: as §1
# [11] = target: GlcNAc(a1-4)Gal(b1-4)GlcNAc
# Outline: as §1
# [12] = target: GlcNAc(a1-4)Gal(b1-4)GlcNAc(b1-3)Gal(b1-4)Glc
# Outline: as §1
# [13] = target: GlcNAc(a1-4)Gal(b1-4)GlcNAc(b1-3)Gal(b1-4)GlcNAc
# Outline: as §1
# [14] = target: GlcNAc(a1-4)Gal(b1-4)GlcNAc(b1-3)Gal(b1-4)GlcNAc(b1-3)Gal(b1-4)GlcNAc
# Outline: as §1
# [15] = target: GlcNAc(a1-4)Gal(b1-4)GlcNAc(b1-3)Gal(b1-4)[Fuc(a1-3)]GlcNAc(b1-3)Gal(b1-4)[Fuc(a1-3)]GlcNAc
# Outline: as §1
# [16] = target: GlcNAc(a1-6)Gal(b1-4)GlcNAc
# Outline: as §1
# [17] = target: GlcNAc(b1-2)Gal(b1-3)GalNAc
# Outline: as §1
# [18] = target: GlcNAc(b1-2)Man(a1-3)[GlcNAc(b1-2)Man(a1-6)]Man(b1-4)GlcNAc(b1-4)GlcNAc
# Outline: as §1
# [19] = target: GlcNAc(b1-2)Man(a1-3)[GlcNAc(b1-2)Man(a1-6)]Man(b1-4)GlcNAc(b1-4)[Fuc(a1-6)]GlcNAc
# Outline: as §1
# [20] = target: GlcNAc(b1-2)Man(a1-3)[GlcNAc(b1-4)][GlcNAc(b1-2)Man(a1-6)]Man(b1-4)GlcNAc(b1-4)GlcNAc
# Outline: as §1
# [21] = target: GlcNAc(b1-2)Man(a1-3)[GlcNAc(b1-4)][GlcNAc(b1-2)Man(a1-6)]Man(b1-4)GlcNAc(b1-4)[Fuc(a1-6)]GlcNAc
# Outline: as §1
# [22] = target: GlcNAc(b1-2)[GlcNAc(b1-4)]Man(a1-3)[GlcNAc(b1-2)Man(a1-6)]Man(b1-4)GlcNAc(b1-4)GlcNAc
# Outline: as §1
# [23] = target: GlcNAc(b1-2)[GlcNAc(b1-4)]Man(a1-3)[GlcNAc(b1-4)][GlcNAc(b1-2)Man(a1-6)]Man(b1-4)GlcNAc(b1-4)GlcNAc
# Outline: as §1
# [24] = target: GlcNAc(b1-2)[GlcNAc(b1-4)]Man(a1-3)[GlcNAc(b1-4)][GlcNAc(b1-2)[GlcNAc(b1-6)]Man(a1-6)]Man(b1-4)GlcNAc(b1-4)GlcNAc
# Outline: as §1
# [25] = target: GlcNAc(b1-2)[GlcNAc(b1-4)]Man(a1-3)[GlcNAc(b1-4)][GlcNAc(b1-2)[GlcNAc(b1-6)]Man(a1-6)]Man(b1-4)GlcNAc(b1-4)[Fuc(a1-6)]GlcNAc
# Outline: as §1
# [26] = target: GlcNAc(b1-2)[GlcNAc(b1-6)]Man(a1-6)[GlcNAc(b1-2)Man(a1-3)]Man(b1-4)GlcNAc(b1-4)GlcNAc
# Outline: as §1
# [27] = target: GlcNAc(b1-2)[GlcNAc(b1-6)]Man(a1-6)[GlcNAc(b1-2)Man(a1-3)]Man(b1-4)GlcNAc(b1-4)[Fuc(a1-6)]GlcNAc
# Outline: as §1
# [28] = target: GlcNAc(b1-2)[GlcNAc(b1-6)]Man(a1-6)[GlcNAc(b1-4)][GlcNAc(b1-2)Man(a1-3)]Man(b1-4)GlcNAc(b1-4)GlcNAc
# Outline: as §1
# [29] = target: GlcNAc(b1-3)Fuc
# Outline: as §1
# [30] = target: GlcNAc(b1-3)Gal
# Outline: as §1
# [31] = target: GlcNAc(b1-3)Gal(b1-3)GalNAc
# Outline: as §1
# [32] = target: GlcNAc(b1-3)Gal(b1-4)Glc
# Outline: as §1
# [33] = target: GlcNAc(b1-3)Gal(b1-4)GlcNAc
# Outline: as §1
# [34] = target: GlcNAc(b1-3)Gal(b1-4)GlcNAc(b1-2)Man(a1-3)[GlcNAc(b1-3)Gal(b1-4)GlcNAc(b1-2)Man(a1-6)]Man(b1-4)GlcNAc(b1-4)GlcNAc
# Outline: as §1
# [35] = target: GlcNAc(b1-3)Gal(b1-4)GlcNAc(b1-2)Man(a1-3)[GlcNAc(b1-3)Gal(b1-4)GlcNAc(b1-2)Man(a1-6)]Man(b1-4)GlcNAc(b1-4)[Fuc(a1-6)]GlcNAc
# Outline: as §1
# [36] = target: GlcNAc(b1-3)Gal(b1-4)GlcNAc(b1-2)[GlcNAc(b1-3)Gal(b1-4)GlcNAc(b1-6)]Man(a1-6)[GlcNAc(b1-3)Gal(b1-4)GlcNAc(b1-2)Man(a1-3)]Man(b1-4)GlcNAc(b1-4)GlcNAc
# Outline: as §1
# [37] = target: GlcNAc(b1-3)Gal(b1-4)GlcNAc(b1-3)Gal(b1-4)GlcNAc
# Outline: as §1
binder,measurement,setting,value
B1,glycan array binding signal (z-score),[1],0.511
same,glycan array binding signal (z-score),[2],-0.237
same,glycan array binding signal (z-score),[3],0.174
same,glycan array binding signal (z-score),[4],-0.356
same,glycan array binding signal (z-score),[5],-0.401
same,glycan array binding signal (z-score),[6],-0.145
same,glycan array binding signal (z-score),[7],-0.282
same,glycan array binding signal (z-score),[8],-0.525
same,glycan array binding signal (z-score),[9],0.079
same,glycan array binding signal (z-score),[10],-0.422
same,glycan array binding signal (z-score),[11],-0.188
same,glycan array binding signal (z-score),[12],-0.389
same,glycan array binding signal (z-score),[13],0.055
same,glycan array binding signal (z-score),[14],-0.241
same,glycan array binding signal (z-score),[15],0.564
same,glycan array binding signal (z-score),[16],0.435
same,glycan array binding signal (z-score),[17],-0.771
same,glycan array binding signal (z-score),[18],-0.443
same,glycan array binding signal (z-score),[19],-0.198
same,glycan array binding signal (z-score),[20],-0.267
same,glycan array binding signal (z-score),[21],-0.661
same,glycan array binding signal (z-score),[22],-0.588
same,glycan array binding signal (z-score),[23],0.153
same,glycan array binding signal (z-score),[24],-0.822
same,glycan array binding signal (z-score),[25],-0.516
same,glycan array binding signal (z-score),[26],0.08
same,glycan array binding signal (z-score),[27],0.234
same,glycan array binding signal (z-score),[28],-0.575
same,glycan array binding signal (z-score),[29],-0.109
same,glycan array binding signal (z-score),[30],-0.592
same,glycan array binding signal (z-score),[31],0.885
same,glycan array binding signal (z-score),[32],-0.576
same,glycan array binding signal (z-score),[33],-0.384
same,glycan array binding signal (z-score),[34],0.329
same,glycan array binding signal (z-score),[35],-0.424
same,glycan array binding signal (z-score),[36],1.23
same,glycan array binding signal (z-score),[37],-0.868
